Results on 45 molecules are retold here after paper PMC4336329 (PLoS ONE, 2015).

In all, about 310,000 compounds went through this assay and about 2,200 (0.71%) showed an effect of 50% or more. Effects have a minus sign here. This is one part of the list.

Sequence of human ether-à-go-go-related gene (hERG) potassium channel (Q12809 whole entry, looked up): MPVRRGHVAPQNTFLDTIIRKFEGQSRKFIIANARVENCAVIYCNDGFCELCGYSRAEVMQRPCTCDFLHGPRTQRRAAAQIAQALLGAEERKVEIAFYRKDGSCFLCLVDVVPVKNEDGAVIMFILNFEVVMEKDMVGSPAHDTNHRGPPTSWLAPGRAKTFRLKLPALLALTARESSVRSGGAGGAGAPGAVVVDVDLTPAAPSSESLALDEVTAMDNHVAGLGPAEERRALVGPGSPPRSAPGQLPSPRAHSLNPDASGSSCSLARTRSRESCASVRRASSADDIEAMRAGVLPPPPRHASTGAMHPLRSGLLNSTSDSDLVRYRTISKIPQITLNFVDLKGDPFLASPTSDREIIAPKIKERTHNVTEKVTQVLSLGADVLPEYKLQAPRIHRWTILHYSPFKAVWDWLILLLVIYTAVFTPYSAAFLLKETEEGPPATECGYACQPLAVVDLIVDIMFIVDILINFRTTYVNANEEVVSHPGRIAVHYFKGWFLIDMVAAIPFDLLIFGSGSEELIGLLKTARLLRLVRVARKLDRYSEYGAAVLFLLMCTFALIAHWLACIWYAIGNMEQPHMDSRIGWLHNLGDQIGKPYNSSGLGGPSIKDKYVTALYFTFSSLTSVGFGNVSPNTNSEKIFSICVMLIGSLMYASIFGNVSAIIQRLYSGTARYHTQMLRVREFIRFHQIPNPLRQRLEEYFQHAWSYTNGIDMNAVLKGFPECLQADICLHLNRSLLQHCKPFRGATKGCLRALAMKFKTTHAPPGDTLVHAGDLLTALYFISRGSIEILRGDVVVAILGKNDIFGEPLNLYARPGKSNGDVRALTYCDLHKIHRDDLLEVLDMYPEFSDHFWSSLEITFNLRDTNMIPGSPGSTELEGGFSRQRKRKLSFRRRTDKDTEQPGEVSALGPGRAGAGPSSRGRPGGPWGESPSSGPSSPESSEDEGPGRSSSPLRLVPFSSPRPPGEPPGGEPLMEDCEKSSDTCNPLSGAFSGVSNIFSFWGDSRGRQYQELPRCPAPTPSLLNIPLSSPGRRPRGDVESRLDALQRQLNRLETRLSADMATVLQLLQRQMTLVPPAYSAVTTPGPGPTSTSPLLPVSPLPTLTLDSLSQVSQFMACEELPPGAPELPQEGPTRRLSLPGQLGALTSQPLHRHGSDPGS

The assay has as its target human ether-à-go-go-related gene (hERG) potassium channel (human, UniProt Q12809). As to the kind of experiment: primary screen, population patch clamp on CHO cells stably expressing hERG.
Consider `CN(C)c1cc[n+](CC(=O)Nc2cc(C(F)(F)F)ccc2Cl)cc1.[Cl-]`, for which the “hERG current change (%, negative = inhibition) at 1uM” value was found to be 6.61%.

In the case of `CCCCn1c(O)c(C(C)=NCc2ccco2)c(=O)[nH]c1=O`, the “hERG current change (%, negative = inhibition) at 1uM” value came to 8.27%.

Consider `C=CC1CN2CCC1CC2c1[nH]c2ccccc2c1CCO` (stereo not drawn), for which the “hERG current change (%, negative = inhibition) at 1uM” value is -1.01%.

On to `COc1ccc(NC(=O)[C@@H](NC(=O)N2C[C@H]3C[C@@H](C2)c2cccc(=O)n2C3)C(C)C)cc1`, for which the “hERG current change (%, negative = inhibition) at 1uM” value was determined as 8.5%.

For the molecule `O=C1N=C(N2CCCC2C(=O)O)S/C1=C\c1ccco1` (stereo not drawn), the “hERG current change (%, negative = inhibition) at 1uM” value is given as 20.8%.

Consider `Cc1cccc(OCC(=O)NCc2ccncc2)c1C`, for which the “hERG current change (%, negative = inhibition) at 1uM” value is reported as 4.76%.

In the case of `CCOC(=O)c1c(N)sc2c1CCC1C(=O)N(C3CCCCC3)C(=O)C21` (stereo not drawn), the “hERG current change (%, negative = inhibition) at 1uM” value was determined as 7.3%.

With `CC(=O)N/N=C(\C)CC(=O)NC(C)(C)C`, the “hERG current change (%, negative = inhibition) at 1uM” value is recorded as 10.2%.

Take `Cc1cc(NC(=O)CCCN2C(=O)c3cccnc3C2=O)ccc1Br`: the “hERG current change (%, negative = inhibition) at 1uM” value was 2.29%.

Consider `Cc1cccc(-n2nnnc2-c2cnccc2C(F)(F)F)c1C`, for which the “hERG current change (%, negative = inhibition) at 1uM” value came to 12.9%.

For the molecule `CC1CC(C)CN(CCCNC(=O)c2cn(C)c3ccc(S(=O)(=O)N4CCCC4)cc3c2=O)C1` (stereo not drawn), the “hERG current change (%, negative = inhibition) at 1uM” value was determined as 5.91%.

With `C#CCOc1nc2c(c(=O)n(C)c(=O)n2C)n1Cc1ccccc1`, the “hERG current change (%, negative = inhibition) at 1uM” value is recorded as 10.2%.

Regarding `O=C(NCc1ccccc1)C1CC(=O)N(C2CCCCC2)C1` (stereo not drawn), the “hERG current change (%, negative = inhibition) at 1uM” value is given as 12.2%.

Regarding `CCn1c(COc2ccccc2C)nnc1SCC(=O)O`, the “hERG current change (%, negative = inhibition) at 1uM” value was 12.1%.

As to `CC1(C)CC(=O)c2sc(NS(=O)(=O)c3cc(Cl)ccc3Cl)nc2C1`, the “hERG current change (%, negative = inhibition) at 1uM” value was 18.5%.

With `Cc1nc(N=C(N)N)nc2ccccc12`, the “hERG current change (%, negative = inhibition) at 1uM” value is 20.5%.

Turning to `CCn1cc(CN2CCC(n3nccc3NC(=O)CCc3ccccc3)CC2)cn1`, the “hERG current change (%, negative = inhibition) at 1uM” value is recorded as -1.76%.

In the case of `Cc1cc(C(=O)Nc2nccs2)c2cc(F)ccc2n1`, the “hERG current change (%, negative = inhibition) at 1uM” value is reported as 8.04%.

In the case of `ClC1=CCC2CN(CCN3CCCCC3)CC2C1` (stereo not drawn), the “hERG current change (%, negative = inhibition) at 1uM” value was 8.13%.

`Cn1sc(NC(=O)c2ccccc2Cl)nc1=O`: the “hERG current change (%, negative = inhibition) at 1uM” value came to 1.95%.

For the molecule `Cc1cc(Br)c(NC(=O)CN(C)CCOc2ccccc2)c(Br)c1`, the “hERG current change (%, negative = inhibition) at 1uM” value amounted to 4.73%.

Consider `Cc1cccc(NC(=S)Nc2cccc(C(F)(F)F)c2)n1`, for which the “hERG current change (%, negative = inhibition) at 1uM” value is listed as 9.11%.

Regarding `COc1ccc2nc(NC(=O)Cn3cnc4c(=O)n(C)c(=O)n(C)c43)sc2c1`, the “hERG current change (%, negative = inhibition) at 1uM” value is given as -31.5%.

Consider `COc1ccc(N2CCN(C(=O)c3cccc(NC(=O)c4ccco4)c3)CC2)cc1`, for which the “hERG current change (%, negative = inhibition) at 1uM” value is recorded as -8.07%.

With `CC(C)CCn1c(=S)[nH]c2ncccc2c1=O`, the “hERG current change (%, negative = inhibition) at 1uM” value is on record as -0.176%.

In the case of `C=C(C)Cn1c(SCC(=O)N/N=C/c2cccc(O)c2)nc2ccccc2c1=O`, the “hERG current change (%, negative = inhibition) at 1uM” value is given as 15.9%.

`Cc1cc2nc(-c3ccc(SCC(=O)N4CCOCC4)nc3)[nH]c2cc1C`: the “hERG current change (%, negative = inhibition) at 1uM” value was 12.3%.

Regarding `CSc1ccc(N/N=C(/C#N)S(=O)(=O)C(C)(C)C)cc1`, the “hERG current change (%, negative = inhibition) at 1uM” value was found to be 16%.

Consider `O=C(COC(=O)c1ccc2ncsc2c1)NCc1cccc(Cl)c1`, for which the “hERG current change (%, negative = inhibition) at 1uM” value was -9.48%.

Regarding `COc1ccc(Br)cc1/C=N/NC(=O)c1ccco1`, the “hERG current change (%, negative = inhibition) at 1uM” value was 14%.

For `CCN1CCN(S(=O)(=O)c2ccc(Cl)c(C(=O)N(C)CCOc3ccc(Cl)cc3)c2)CC1`, the “hERG current change (%, negative = inhibition) at 1uM” value stood at 0.373%.

For the molecule `CCOC(=O)c1c(C)[nH]c(C(=O)CSc2ccccc2)c1C`, the “hERG current change (%, negative = inhibition) at 1uM” value turned out to be 1.9%.

Take `COc1ccc(-c2c(C)c3ccc(OCC(C)=O)cc3oc2=O)cc1`: the “hERG current change (%, negative = inhibition) at 1uM” value came to 7.6%.

For `CC(=O)c1cccc(NC(=O)N2C3CCC2CC(NC(=O)Nc2ccccc2)C3)c1` (stereo not drawn), the “hERG current change (%, negative = inhibition) at 1uM” value was 5.48%.

For the molecule `O=C(c1cnc2nc3ccccc3n2c1)c1cc(F)ccc1O`, the “hERG current change (%, negative = inhibition) at 1uM” value is on record as -6.8%.

Regarding `O=C(NCCSc1ccccc1)c1ccco1`, the “hERG current change (%, negative = inhibition) at 1uM” value came to 2.33%.

In the case of `CN(C)C1=NCCN1CCCC1CCCCC1`, the “hERG current change (%, negative = inhibition) at 1uM” value amounted to 3.91%.

Regarding `COCCn1c(C)cc(C(=O)CN2C(=O)NC3(CCCCCCC3)C2=O)c1C`, the “hERG current change (%, negative = inhibition) at 1uM” value was -15%.

As for `CC(=O)c1ccc(N2C(=NC(=O)COc3ccccc3)SC3CS(=O)(=O)CC32)cc1` (stereo not drawn), the “hERG current change (%, negative = inhibition) at 1uM” value is given as 7.75%.

On to `CCCN(CCC)S(=O)(=O)c1cccc(C(=O)Nc2ccc3c(c2)OCO3)c1`, for which the “hERG current change (%, negative = inhibition) at 1uM” value is -6.21%.

With `COc1ccc(-n2nc3c(c2NC(=O)C(C)Oc2ccccc2)CS(=O)(=O)C3)cc1` (stereo not drawn), the “hERG current change (%, negative = inhibition) at 1uM” value was 15.9%.

For the molecule `Cc1oc2ccc(O)cc2c1C(=O)c1ccc([N+](=O)[O-])cc1`, the “hERG current change (%, negative = inhibition) at 1uM” value is 10.4%.

On to `CCN(CC)c1ccc(/C=N/NC(=O)CNC(=O)c2cccs2)cc1`, for which the “hERG current change (%, negative = inhibition) at 1uM” value is listed as 10.1%.

For the molecule `O=C(COC(=O)C1CC2CCCC(C1)C2=O)Nc1ccccc1` (stereo not drawn), the “hERG current change (%, negative = inhibition) at 1uM” value is listed as 9.57%.

On to `Cc1c(C(=O)OCC(C)C)[nH]c2c1C(=O)CC(c1ccco1)C2` (stereo not drawn), for which the “hERG current change (%, negative = inhibition) at 1uM” value is 2.16%.
